The list shows a part of the results. At the low end of the ranking the order means little.

Our source for the binding signal values is article PMC10668032.

The target in the assay is SIX1 homeodomain (reference allele) (UniProt Q15475). The experiment in a line: universal protein binding microarray. The note with it: Universal all-10-mer PBM (8x60K, AMADID 030236), 300 nM GST-tagged protein, Alexa Fluor 488 anti-GST; buffer, salt, pH and temperature not stated; high values mean tight binding; most listed sequences are background and not binding sites; double strand, one strand shown.
Consider CGGGCTTC, for which the binding signal was 0.0267 E-score.

In the case of GACGCCTC, the binding signal was -0.0993 E-score. With ATAAATTA, the binding signal was -0.0707 E-score. Consider GGGCCCGA, for which the binding signal was -0.0416 E-score. Turning to ATTCCCGA, the binding signal worked out at 0.0123 E-score. With AGCTTAGC, the binding signal was -0.233 E-score. For the sequence AGCATCAA, the binding signal is -0.027 E-score. Take TACTCGCA: the binding signal came out at 0.154 E-score. As to TATAAGAA, the binding signal amounted to 0.0186 E-score. As for AGCATCAG, the binding signal came out at 0.0106 E-score. For the sequence ACTATCAT, the binding signal stood at 0.3 E-score. For the sequence CCAGATAA, the binding signal was 0.234 E-score.

For the sequence AAACACGA, the binding signal was -0.162 E-score. In the case of GGTCTTAC, the binding signal was -0.0205 E-score.

Turning to TCAAAGAA, the binding signal is -0.26 E-score. With CATCATGG, the binding signal was 0.0742 E-score.

CAGCTCGC: the binding signal amounted to 0.0263 E-score. As for TAGTTCCA, the binding signal was -0.0642 E-score. As to ATTTCCTA, the binding signal is -0.0321 E-score. In the case of GCCAAGCA, the binding signal is -0.29 E-score.

In the case of AAATGCGC, the binding signal is -0.274 E-score. The figure for AATCCCGA is 0.223 E-score; for AGCACGAG it is 0.09 E-score. Turning to ATCATCAC, the binding signal turned out to be 0.228 E-score. The figure for GCGTTTAC is -0.073 E-score; for AAAGCATA it is -0.18 E-score; for AAAGAGGT it is -0.146 E-score. In the case of GGCCTGAA, the binding signal is -0.241 E-score. CCGGCGCG: the binding signal came out at 0.0861 E-score.

Take ACTACCCG: the binding signal amounted to 0.159 E-score. As for CTGGAACC, the binding signal is -0.0881 E-score.

AAGCATAG: the binding signal was -0.205 E-score.

Regarding ACGCATAC, the binding signal came to 0.1 E-score.

For the sequence ATGGTTAC, the binding signal is -0.13 E-score. AACTATAA: the binding signal was -0.206 E-score. Turning to GTGCGTCA, the binding signal is -0.179 E-score. Then CGGCAGAA, with -0.0996 E-score. As for AGTACCGA, the binding signal is -0.0772 E-score. As for AAGTTCCA, the binding signal was -0.137 E-score. On to AATCAAAC, for which the binding signal is -0.167 E-score. Consider GACCATGC, for which the binding signal is -0.0171 E-score.

As for AAGCGTAA, the binding signal was -0.231 E-score. Then TGCTGACA, with -0.0304 E-score; and AAATAATA, with 0.192 E-score. With CCGTGCCG, the binding signal was -0.168 E-score. On to CCCGCCGC, for which the binding signal was found to be 0.019 E-score. For CTAAGATC, the binding signal was 0.207 E-score. On to GAATCCTC, for which the binding signal is -0.0341 E-score. The figure for CCTTTAGC is -0.222 E-score. For the sequence GCTTGCAC, the binding signal is -0.246 E-score. For AACAGAAA, the binding signal was -0.254 E-score. Take ACATGCCG: the binding signal is 0.0693 E-score. Regarding AGCCGTAA, the binding signal was -0.0925 E-score. For ACTTGGCA, the binding signal was -0.12 E-score. The figure for AATCTGCT is -0.0349 E-score. Then CCCCTGTA, with 0.144 E-score. With GTTACTTA, the binding signal is -0.0663 E-score.

On to GCACTGAC, for which the binding signal is -0.0298 E-score. Take AGTCGTTC: the binding signal was -0.336 E-score. With AAGGCGGT, the binding signal was -0.0222 E-score.

Take CGCAGACC: the binding signal is -0.158 E-score. As for CCTTGAGC, the binding signal is -0.058 E-score. In the case of AGGTGAGC, the binding signal came to 0.0625 E-score. Take AAGGAATC: the binding signal is -0.00012 E-score. Regarding ATTCTCGC, the binding signal was -0.0601 E-score.

As to CGAGAGTC, the binding signal was -0.141 E-score. ATAAATGG: the binding signal is -0.0817 E-score. On to ACGTACAT, for which the binding signal was -0.118 E-score. As to AAGTCACG, the binding signal is -0.127 E-score. For the sequence ACAACGAA, the binding signal came out at 0.0151 E-score. On to CGTTGGGC, for which the binding signal was -0.134 E-score. Then AAAGATCC, with 0.277 E-score.

Turning to CTTATCGA, the binding signal was found to be 0.00559 E-score. As to CCTCAACA, the binding signal worked out at 0.0814 E-score. Then CTCTGTAC, with -0.00309 E-score; and GCTCTACA, with -0.00505 E-score; and TTCACAAA, with -0.174 E-score. With GATCTGCA, the binding signal is 0.258 E-score.

Regarding AAAGCCAT, the binding signal is -0.146 E-score. With CCAGGGGG, the binding signal amounted to 0.0356 E-score. On to ACGGCCAG, for which the binding signal was -0.0895 E-score. Then ATTTCATA, with 0.101 E-score; and TCATAGGA, with 0.0152 E-score. Regarding CAGATCCG, the binding signal worked out at 0.322 E-score. With CGGAAGTA, the binding signal is -0.0644 E-score.

Take ACGATTGC: the binding signal is -0.179 E-score. With GCCGGGCA, the binding signal is -0.127 E-score.

As for TGGCCCCA, the binding signal was -0.198 E-score. CTCCAACA: the binding signal is -0.148 E-score. With ATTATCTC, the binding signal was found to be 0.203 E-score.

On to ATGTGTCA, for which the binding signal was -0.0934 E-score.

With ATCGGTTC, the binding signal was 0.248 E-score. AGGTGAGA: the binding signal turned out to be 0.159 E-score. Then ATTGGTCG, with -0.147 E-score; and CCGCTCAG, with -0.13 E-score. For the sequence GCGAACGA, the binding signal is -0.0695 E-score.

Turning to ACACGACG, the binding signal is -0.103 E-score.

With ACACGTAC, the binding signal is 0.0533 E-score. For the sequence ACCAGTCC, the binding signal was -0.181 E-score. For GGCGTAAC, the binding signal was -0.0886 E-score. As to ACCATCCC, the binding signal was 0.14 E-score. Turning to CCTAAGAA, the binding signal is -0.122 E-score. As to CTATAAAG, the binding signal was -0.183 E-score. The figure for ACCCGTGA is 0.0021 E-score. For CGGAGTGC, the binding signal is -0.00819 E-score. AAGTCGGT: the binding signal was -0.104 E-score.

Regarding CAGCGGTA, the binding signal is 0.0679 E-score.

On to AATTTACT, for which the binding signal was -0.15 E-score. The figure for CAGCTCCA is -0.202 E-score.

Consider ACCACTAG, for which the binding signal is -0.0541 E-score.
